{"source": "ChEMBL document CHEMBL4888484", "about": "“Replenishing the malaria drug discovery pipeline: Screening and hit evaluation of the MMV Hit Generation Library 1 (HGL1) against asexual blood stage Plasmodium falciparum ,using a nano luciferase reporter read-out” (2022)", "note": "Among all 150,000 compounds or so, about 540 (0.36%) showed an effect of 50% or more. This is one part of the list.", "data": [{"tested_on": "Plasmodium falciparum", "assay": "Primary screen in NF54 nanoGlo assay, in single point, at 2uM, 72h; a lower Z score goes with more inhibition", "assay_type": "functional, Erythrocyte", "details": "timepoint 72 hour", "units": {"% Inhibition": "%"}, "values": [{"smiles": "CCOCCS(=O)(=O)NCC(=O)N1CC(C)CCC1C", "note": "(stereo not drawn)", "% Inhibition": 1, "Z score": -0.17}, {"smiles": "Cc1ccc(N(C)C(=O)CCN2C(=O)CCC2=O)c(C)c1", "% Inhibition": -29, "Z score": 3.4}, {"smiles": "Cc1cnc(C(=O)NC2C[C@H]3CC[C@@H](C2)N3C(=O)Cc2cccc(F)c2)cn1", "note": "(stereo partly drawn)", "% Inhibition": -2, "Z score": 0.33}, {"smiles": "Cc1nc(NC(=O)CNC(=O)COc2ccccc2)sc1C", "% Inhibition": -4, "Z score": 0.83}, {"smiles": "O=C(Cn1nc(N2CCOCC2)ccc1=O)N1CCN(c2ccccn2)CC1", "% Inhibition": -22, "Z score": 1.9}, {"smiles": "O=C1N(Cc2ccc(F)c(F)c2)CCC[C@@]12CCN(CC1CCCC1)C2", "% Inhibition": -10, "Z score": 1.26}, {"smiles": "Cc1c[nH]c(CN(C)C(=O)Nc2ccc(C)c(C)c2)n1", "% Inhibition": -6, "Z score": 0.73}, {"smiles": "COc1ccc(OC(C)c2nc(C3CCCN3C(=O)OC(C)(C)C)no2)cc1", "note": "(stereo not drawn)", "% Inhibition": -8, "Z score": 0.93}, {"smiles": "CCOC(=O)c1nc(CNC(=O)OC(C)(C)C)sc1N", "% Inhibition": -6, "Z score": 0.62}, {"smiles": "O=C1OCCCN1CCn1ccnc1-c1cnc(N2CCCC2)s1", "% Inhibition": -10, "Z score": 2.02}, {"smiles": "Cc1nc(C(=O)NC2CCN(C(C)C)C2c2ccc(F)c(F)c2)c[nH]1", "note": "(stereo not drawn)", "% Inhibition": -2, "Z score": 0.28}, {"smiles": "COc1ccc(CN2C[C@H]3CC[C@@H](C2)N(CC(=O)N(C)C)C3)cc1", "% Inhibition": -5, "Z score": 0.54}, {"smiles": "CCOC1CC(C(=O)Nc2cc(C3CCOCC3)[nH]n2)C1", "note": "(stereo not drawn)", "% Inhibition": -6, "Z score": 0.61}, {"smiles": "Cc1nc(N2CCC(N[C@@H](C)c3csc(C)n3)CC2)c2ccsc2n1", "% Inhibition": -11, "Z score": 1.11}, {"smiles": "Cc1cc(NC(=O)N2CC(S(=O)(=O)NC3CCCC3)C2)nn1C", "% Inhibition": 1, "Z score": -0.12}, {"smiles": "COc1ccc(-c2noc(-c3ccc(N4CCC(N5CCCCC5)CC4)nn3)n2)cc1", "% Inhibition": -19, "Z score": 2.7}, {"smiles": "CN(CCN(C)C1CCCC1)C(=O)c1ccncc1O", "% Inhibition": -3, "Z score": 0.55}, {"smiles": "CN(CCc1ccc(Br)cc1)C(=O)c1cccn1C1CCNCC1", "% Inhibition": -1, "Z score": 0.13}, {"smiles": "COc1cc(F)c(CN2CCC[C@](CC3CC3)(C(=O)O)C2)cc1OC", "% Inhibition": -8, "Z score": 1.3}, {"smiles": "Cc1nc2c(C(=O)N3C[C@@H](F)[C@@H](F)C3)cccc2o1", "% Inhibition": -6, "Z score": 0.76}, {"smiles": "O=C(NCCn1c(=O)[nH]c2ncccc2c1=O)C1CCOCC1", "% Inhibition": -17, "Z score": 2.84}, {"smiles": "CC(=O)N[C@@H](CCC(N)=O)c1nc(-c2ccncc2)nn1C1CCCCC1", "% Inhibition": 3, "Z score": -0.43}, {"smiles": "Cc1nc(CCN2CCCN(CC(=O)N3CCCC3)CC2)cs1", "% Inhibition": -1, "Z score": 0.2}, {"smiles": "CC1CC(NC(=O)N2C[C@H]3CCN(Cc4ccccc4)[C@H]3C2)c2nccn21", "note": "(stereo partly drawn)", "% Inhibition": -12, "Z score": 1.89}, {"smiles": "CC(NC1CCCc2occc21)c1nccn1C", "note": "(stereo not drawn)", "% Inhibition": -15, "Z score": 2.04}, {"smiles": "NS(=O)(=O)c1cc(Cl)ccc1F", "% Inhibition": -1, "Z score": 0.08}, {"smiles": "CCn1nc(CC(C)C)cc1C(=O)N1CCCC[C@@H]1CN1CCCC1", "% Inhibition": -4, "Z score": 0.52}, {"smiles": "Cc1cc(CS(=O)(=O)[C@@H](C)C(=O)Nc2cc(C)on2)no1", "% Inhibition": -5, "Z score": 1.01}, {"smiles": "Cn1c2ccccc2c2cc(S(=O)(=O)N3CCc4ccccc43)ccc21", "% Inhibition": -10, "Z score": 1.91}, {"smiles": "CCn1c(=O)c2c(ncn2Cc2ccccc2C)n(-c2cccc(C)c2)c1=O", "% Inhibition": 1, "Z score": -0.11}, {"smiles": "CCC1CCC(N(CCO)Cc2cncnc2)CC1", "note": "(stereo not drawn)", "% Inhibition": -15, "Z score": 1.7}, {"smiles": "Cc1ccc(-c2cc(NC(=O)Nc3ccc(F)cc3C)[nH]n2)o1", "% Inhibition": -7, "Z score": 1.17}, {"smiles": "O=C(Nc1cc[n+]([O-])c(Cl)c1)N1CCCc2ccccc21", "% Inhibition": 9, "Z score": -1.03}, {"smiles": "CCCc1nc(N(C)CC2CCN(CC(C)C)CC2)no1", "% Inhibition": -2, "Z score": 0.34}, {"smiles": "Cc1nccnc1N1CC[C@@]2(CCCN(CC3CCC3)C2=O)C1", "% Inhibition": -7, "Z score": 0.62}, {"smiles": "Cc1nnc(-c2ccc(S(=O)(=O)N3CCOCC3)o2)o1", "% Inhibition": 1, "Z score": -0.13}, {"smiles": "NC(=O)c1ccc(C(=O)NC2CNCCC2c2ccc(F)cc2)s1", "note": "(stereo not drawn)", "% Inhibition": -5, "Z score": 0.95}, {"smiles": "CC[C@@H](Cn1cnc(-c2ccccc2)c1-c1cnn(CC)c1)N1CCN(C)CC1", "% Inhibition": 3, "Z score": -0.72}, {"smiles": "CCOC1CC(CO)(NC(=O)c2ccccc2)C1(C)C", "note": "(stereo not drawn)", "% Inhibition": -6, "Z score": 1.07}, {"smiles": "COc1ccc(CN2CCN(c3ccc(NC(=O)Cc4ccccc4)cn3)CC2)cc1", "% Inhibition": 0, "Z score": 0.04}, {"smiles": "CCOC(C)(C)C(=O)N[C@@H](CC)c1nccs1", "% Inhibition": -8, "Z score": 1.45}, {"smiles": "CCN1C(=O)[C@@H]2CN(C(=O)OC(C)(C)C)CCCN2C1=O", "% Inhibition": -15, "Z score": 1.56}, {"smiles": "Cc1nn(C)cc1-c1nnc(-c2ccccc2)o1", "% Inhibition": 35, "Z score": -5.02}, {"smiles": "CCCC(=O)N1CCC(N[C@@H](C)c2ncccc2C)CC1", "% Inhibition": -2, "Z score": 0.32}]}]}
